From PubChem BioAssay (NCI)
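Briefly, cells in 96-well plates were exposed to five compound concentrations for 48 h, and endpoints were estimated by linear interpolation. TGI: concentration producing complete growth inhibition.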 A number of entries come with more than one value. Only these are listed. There may be further records. Records of one sample usually come from different ranges of test concentrations, not given here; some values may only mark the edge of a range.

Tested on: MDA-MB-468 breast
Test: growth of human tumour cells (NCI), 48 h

`COc1ccc2c(c1)NC(=O)CN2c1nc(C)nc2ccccc12` was tested, and the TGI was 3.57 nM and > 100 µM.
